Assay results reported in the supplement of paper PMC11417369.
The other results are listed elsewhere or left out.

The sequences below were run on PfSIP2 AP2 domain 1 (GST-tagged) (assay: gcPBM binding intensity (ln(normalized median fluorescence intensity)); higher = stronger DNA binding).
Outline: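 The highest Masliner-normalised natural-log median intensity across replicate spots of either probe orientation is reported as binding intensity. GST-tagged P. falciparum DNA-binding domains expressed in E. coli were applied for 1 h to an Agilent 4 × 180k array of primer-extended double-stranded 36-bp intergenic genomic probes plus negative controls, and bound protein was detected with Alexa488 anti-GST antibody and scanned at 488 nm.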
For “TATACTAAAAAATACACATGCACATACAATATATAT [TGCATGCA_site1016]”, the “gcPBM binding intensity (ln)” value was 7.84. For “AAAATAATATATAATTGTACTTTTTTTTTATATATA [XGTACX_site6093]”, the “gcPBM binding intensity (ln)” value was 6.84. For “ATTATTACACAACGTTGTACATTTCAATATTTTTAT [XGTACX_site5096]”, the “gcPBM binding intensity (ln)” value was 7.16. For “TTTTTTCTTAAAATTTGTACATAGTGCAATTTTTTT [XGTACX_site5509]”, the “gcPBM binding intensity (ln)” value was 8.62. “TTTCTTTTTTTTTAATGTACTTTTTTTATAAAAGGT [XGTACX_site5688]” was tested, and the “gcPBM binding intensity (ln)” value was 7.27. For “TCCTCTTCAATATATATATATTATAAATAAATAAAT [CACACA_negctrl_site1756]”, the “gcPBM binding intensity (ln)” value was 7.34. For “TGTACATATATATATATAATAATAGTTATGTTTATT [CACACA_negctrl_site1474]”, the “gcPBM binding intensity (ln)” value was 7.14. “TTTTTTTATAGCTAAACACACATAAGAATATATGTT [CACACA_site1099]” was tested, and the “gcPBM binding intensity (ln)” value was 6.91. With “CTATAATATAGGTATACACACATATTATAGAATATT [CACACA_site7696]” the “gcPBM binding intensity (ln)” value was 6.83. With “ATATAAAATAGACACGCACACAAAAAAAAAAAAAAA [CACACA_site3522]” the “gcPBM binding intensity (ln)” value was 7.13. “TATGTCAAAAAATAATGTACAAAAAAATTAACATAA [XGTACX_site5463]” was tested, and the “gcPBM binding intensity (ln)” value was 6.88. For “TATATATGGAAAAGGTGTACATTCAATATATATATA [XGTACX_site3167]”, the “gcPBM binding intensity (ln)” value was 8.82. For “TTTATTTTGTAGTGTACACATATATATATATATATA [CACACA_site5843]”, the “gcPBM binding intensity (ln)” value was 9.09. With TATATTTTTTTTCTAGTGCATATTATTAATTAAGTT the “gcPBM binding intensity (ln)” value was 8.81. With “TGAGTATTTTTTTAATGTACTTATATTAAAAGGAAA [XGTACX_site6286]” the “gcPBM binding intensity (ln)” value was 6.92. In the case of “TACAAAATAAGACATGCATGTTATACATATATATTT [TGCATGCA_site321]”, the “gcPBM binding intensity (ln)” value is reported as 6.89. For “AAAATATTATTTTGTTGTACATATAAAATTTTAAGC [XGTACX_site1866]”, the “gcPBM binding intensity (ln)” value was 7.26. For “AAACAAAAAAGAAACACACACTAATTAAATTTTCTT [CACACA_site4746]”, the “gcPBM binding intensity (ln)” value was 6.74. With “TAAATTAATAAAAAGTGTACATAATATACATATATA [XGTACX_site8604]” the “gcPBM binding intensity (ln)” value was 7.02. For TACAATACCGTACAGGTGCAACTAGCCAAAAAAAAG, the “gcPBM binding intensity (ln)” value was 10.2. “ATAATTAAAAAAGGAATATATATATATATATATATA [GTGCAC_negctrl_site343]” was tested, and the “gcPBM binding intensity (ln)” value was 9.3. For “CGTATGACATAATATTGTACTTTTGATATACATCAT [XGTACX_site7366]”, the “gcPBM binding intensity (ln)” value was 6.97. TTTAATAATATTTAGGTGCTATATATTATATGTATA was tested, and the “gcPBM binding intensity (ln)” value was 7.34. With “ATAAATCATAAGGAGAGTACATAAATAAAATAATCA [XGTACX_site8825]” the “gcPBM binding intensity (ln)” value was 6.91. With “AAGTGGCATATAAGTAAAAAATATATACAAGTATAT [GTGCAC_negctrl_site427]” the “gcPBM binding intensity (ln)” value was 6.99. With “TATTAAAGATACTCGGTATAAATAAATTTTAATGTG [XGTACX_negctrl_site239]” the “gcPBM binding intensity (ln)” value was 6.92. With “CTCAATATATTTGATTTACACACTTACAATGTATAT [CACACA_site8982]” the “gcPBM binding intensity (ln)” value was 7.15. With “ACAACATGCACACGCACACACAAAAAAAGCATGCAT [CACACA_site6185]” the “gcPBM binding intensity (ln)” value was 7.74. “ATGCTTATTATTTATTGTACTGAATAAATATATCTG [XGTACX_site4483]” was tested, and the “gcPBM binding intensity (ln)” value was 6.92. With “TATAAAAAATATAATTGTACATAAAGGTTAAAATGT [XGTACX_site6138]” the “gcPBM binding intensity (ln)” value was 7.2. “TTATTTCTACCTTTTTGTACACATTATTATGAAACC [XGTACX_site5325]” was tested, and the “gcPBM binding intensity (ln)” value was 7.58. In the case of “TTTAAATATTACATATGTACTTATAAATATATATAT [XGTACX_site1284]”, the “gcPBM binding intensity (ln)” value is reported as 8.21. In the case of “AAGGAATAGGCATATACACACAGGTACAGATATATA [CACACA_site4402]”, the “gcPBM binding intensity (ln)” value is reported as 6.92. “AAAAAAAAAAAAAACACACAAATCATAAATAAATAT [CACACA_site6362]” was tested, and the “gcPBM binding intensity (ln)” value was 7.32. In the case of “AAAAAAAAAATTGAAAGTACAAATATGTATTATATA [XGTACX_site2455]”, the “gcPBM binding intensity (ln)” value is reported as 6.71. With “TAATAGTATATAAAAAGTACATAATAAGATATGAAA [XGTACX_site1000]” the “gcPBM binding intensity (ln)” value was 7.12. “ATTATGTGCCAATACACACACACATATATATATATA [CACACA_site468]” was tested, and the “gcPBM binding intensity (ln)” value was 9.36. In the case of “TAAAATATGTCATGTGGTACATGAATAGCTTTTATT [XGTACX_site3809]”, the “gcPBM binding intensity (ln)” value is reported as 6.8. TTTTTGTTATATAAAGTGCAGTGACAAGCAGTTTAA was tested, and the “gcPBM binding intensity (ln)” value was 7.77. “AGTGGTGTTAAATGTTGTACGATTTTGTGTTATTCG [XGTACX_site178]” was tested, and the “gcPBM binding intensity (ln)” value was 7.04. With “ATTTAAGCATTATTTTGTACGAAAATAAAAAAATGA [XGTACX_site6958]” the “gcPBM binding intensity (ln)” value was 7.23. With “ATATAAAAAAATAAAACACACACATATATATTATAT [CACACA_site8909]” the “gcPBM binding intensity (ln)” value was 7.17. For “TATAATGCTCTTCTTTGTACATATTATGATTATATT [XGTACX_site2332]”, the “gcPBM binding intensity (ln)” value was 7.15. With “AAAGGAAAATGTGTAAAAAGAAATGCTAGGTATATA [GTGCAC_negctrl_site699]” the “gcPBM binding intensity (ln)” value was 6.81. With “ATATATATATAATATAGTACGTATAATATATGAATC [XGTACX_site4385]” the “gcPBM binding intensity (ln)” value was 8.32.
